Source: PubChem BioAssay AID485313 (National Center for Advancing Translational Sciences (NCATS), 2010)
Out of some 320,000 compounds screened, about 7,600 (2.4%) were called active. The inconclusive results got no clear call from the source; some entries with a clear call stand among them for comparison. The call rests on the fitted dose curve; in most records, active means well fitted activation curve with a large enough effect; inconclusive means small, poorly fitted or top-dose-only effect; inactive means no such curve, though single readings can be large or run the other way. No potency is given beside an inconclusive call; the fits are too rough.

experiment: qHTS Assay for NPC1 Promoter Activators; settings: Huh7 NPC1 promoter luciferase reporter, 24 h; series mostly up to 9.22 µM; activation: at the top concentration; further: nearly all actives have a fitted effect of over 60% in size; on activation: % of control where 0% means no effect
In short: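 Luciferase expression driven by the NPC1 promoter was measured in stably transfected Huh7 cells after a 24 h compound incubation, using a luciferase reagent and a luminescence read.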
Potency means the concentration at half of the fitted maximal effect; tags describe the fitted curve by direction and shape.

Which Potency does the source give for `C(=N\Nc1nc2ccccc2[nH]1)/c1c[nH]c2ccccc12` here?
Its Potency is inconclusive [activator, single point].

With `Cc1ccc(C(=O)Nc2ccc3cn[nH]c3c2)cc1S(=O)(=O)N1CCOCC1` as the compound, how does the Potency read?
The Potency was inconclusive [activator, partial curve].

For `COc1ccc(C(=O)NCCc2c[nH]c3ccccc23)cc1S(=O)(=O)N1CCCCC1C` (stereo unspecified), which “activation” value is on record?
The value was inactive: 4.86%.

For `N#CCC(=O)N/N=C\c1cccc(OC/C=C/c2ccccc2)c1`, which Potency is on record?
Its Potency is active: 0.562 µM.

For `COc1ccc(C(=O)Nc2ccc3c(c2)nc2n3CCSC2)cc1`, which Potency is on record?
Its Potency is active: 2.82 µM.

Which Potency does the source give for `Cc1c(C(=O)NCCc2ccccc2)oc2ccccc12` here?
The Potency was active: 0.794 µM.

Which Potency does the source give for `COCC(=O)Nc1c(C(=O)Nc2ccc3c(c2)OCO3)oc2ccccc12` here?
Its Potency is active: 3.55 µM.

For `COc1ccc(/C=N/NC(=O)c2cccc(C(=O)N/N=C/c3ccc(OC)cc3)n2)cc1`, which “activation” value is on record?
Its value is inactive: 15.3%.

For `Cc1sc(NC(=O)c2ccc3ncsc3c2)c(C(N)=O)c1C`, which Potency is on record?
Its Potency is active: 1.58 µM.

With `COc1ccc(S(=O)(=O)N(C)CC(=O)Nc2ccc3c(c2)OCO3)cc1OC` as the compound, how does the “activation” value read?
Its value is inactive: -3.35%.

With `Cc1cc(NC(=O)COc2ccc(Cl)cc2Cl)n(CCC#N)n1` as the compound, how does the Potency read?
Its Potency is inconclusive [activator, single point].

With `CC(/C=C/c1ccccc1F)=N\NC(=O)c1ccccc1` as the compound, how does the Potency read?
The Potency was inconclusive [activator, partial curve].

Which Potency does the source give for `CCN(CC)C(=S)SCC(=O)c1ccc(F)cc1` here?
Its Potency is active: 2.51 µM.

For `O=C(c1ccc(Cl)s1)N1CCN(c2ccccc2)CC1`, which “activation” value is on record?
The value was inactive: 4.15%.

For `COc1ccc(C2C(C(=O)c3cccs3)=C(O)C(=O)N2Cc2cccnc2)cc1OC` (stereo unspecified), which Potency is on record?
The Potency was inconclusive [activator, single point].

For `Cn1nnc(-c2ccc(OCc3ccccc3F)cc2)n1`, which Potency is on record?
The Potency was active: 0.631 µM.

For `c1cc(N2CCCC2)ccc1C(c1nnnn1C1CCCCC1)N1CCOCC1` (stereo unspecified), which “activation” value is on record?
Its value is inactive: 11.2%.

With `Cc1cc(C(=O)Nc2sc3c(c2C#N)CCC(C)C3)no1` (stereo unspecified) as the compound, how does the Potency read?
Its Potency is active: 1.78 µM.

For `O=C(NC1CCCCCC1)c1ccc2c(=O)n3c(nc2c1)CCCCC3`, which Potency is on record?
The Potency was active: 2.82 µM.

With `COCc1nnc(NC(=O)c2sc3ccccc3c2Cl)s1` as the compound, how does the Potency read?
Its Potency is inconclusive [activator, single point].

With `C/C(=N\Nc1ccc(Cl)c(C(=O)O)c1)c1cccs1` as the compound, how does the Potency read?
The Potency was inconclusive [activator, single point].

For `COc1ccc(/C=C2\N=C(c3ccc(C)cc3)OC2=O)cc1`, which “activation” value is on record?
Its value is inactive: -2.28%.

For `O=C(CSc1nnc(-c2ccco2)o1)c1ccc[nH]1`, which Potency is on record?
The Potency was inconclusive [activator, partial curve].

With `COC(=O)c1ccn(Cc2ccccc2Cl)n1` as the compound, how does the Potency read?
Its Potency is inconclusive [activator, partial curve].

Which Potency does the source give for `COc1ccc(CNc2ccc(Br)cc2)cc1` here?
The Potency was inconclusive [activator, single point].

For `O=C(Nc1cc(Cl)ccc1N1CCOCC1)c1ccc(F)c(S(=O)(=O)N2CCOCC2)c1`, which “activation” value is on record?
Its value is inactive: 8.06%.

Which Potency does the source give for `Cc1nc(C)c(-c2csc(Nc3ccccn3)n2)s1` here?
The Potency was active: 0.562 µM.

For `COCCn1c(SCC(=O)Nc2cccc(S(N)(=O)=O)c2)nc2cc(Cl)ccc2c1=O`, which “activation” value is on record?
Its value is inactive: 1.2%.

With `C/C(=C\c1ccco1)C1Nc2cccc3cccc(c23)N1` as the compound, how does the Potency read?
Its Potency is inconclusive [activator, partial curve].

Which “activation” value does the source give for `COc1ccc2nc(/C(C#N)=C\c3ccc(C(=O)O)cc3)[nH]c2c1` here?
The value was inactive: -2.39%.

For `c1ccc2c(c1)CCN(c1nc3cc4c(cc3s1)OCCO4)C2`, which Potency is on record?
Its Potency is inconclusive [activator, full curve].

With `c1ccc2sc(N3CCOCC3)nc2c1` as the compound, how does the Potency read?
Its Potency is inconclusive [activator, partial curve].

Which Potency does the source give for `CC1CCN(C(=O)COC(=O)c2cc(Cl)c3c(c2)OCO3)CC1` here?
The Potency was inconclusive [activator, partial curve].

With `O=C(Nc1ccc(NC(=O)c2cccs2)cc1)c1ccccc1` as the compound, how does the Potency read?
The Potency was inconclusive [activator, partial curve].

For `COc1ccc(/C=N/NC(=O)c2cccc(NC(=O)c3ccccc3Cl)c2)cc1`, which “activation” value is on record?
The value was inactive: -19%.

Which Potency does the source give for `Cc1cccc2c1cnn2C(=O)Nc1ccccc1Br` here?
The Potency was inconclusive [activator, partial curve].

Which “activation” value does the source give for `COC(=O)C1CCN(C(=O)COC(=O)c2oc3ccc(OC)cc3c2C)CC1` here?
The value was inactive: 0.799%.

With `O=C1CC(c2ccccc2)CC(=O)C1=CN1CCCC1` (stereo unspecified) as the compound, how does the “activation” value read?
Its value is inactive: -1.7%.

Which Potency does the source give for `O=C(Nc1ccc(Br)cc1)c1ccc2c(c1)OCO2` here?
The Potency was active: 1 µM.

With `COc1ccc2oc(-c3cccc(NC(=O)CSc4ccc(Cl)cc4)c3)nc2c1` as the compound, how does the Potency read?
Its Potency is inconclusive [activator, single point].

For `NC(=O)COC(=O)c1cc(-c2ccco2)nc2ccccc12`, which “activation” value is on record?
The value was inactive: -3.3%.

For `CC(C)(C)C(=O)/C=C/c1ccc(Oc2ccccc2)cc1`, which Potency is on record?
The Potency was inconclusive [activator, single point].

With `Brc1ccc2nc(-c3cccs3)c(NCC3CCCO3)n2c1` (stereo unspecified) as the compound, how does the Potency read?
Its Potency is inconclusive [activator, partial curve].

For `CC(=O)c1cccc(NC(=O)CCn2c(=S)oc3ccccc32)c1`, which “activation” value is on record?
The value was inactive: -1.04%.

For `Cc1ccccc1NC(=O)/C=C/c1cccs1`, which Potency is on record?
The Potency was inconclusive [activator, partial curve].

For `c1ccc(-c2noc(C3CCCCC3)n2)nc1`, which Potency is on record?
Its Potency is inconclusive [activator, partial curve].

For `CCOC(=O)NN1C(=O)c2ccccc2NC1c1ccc(OC)cc1OC` (stereo unspecified), which “activation” value is on record?
Its value is inactive: -1.02%.

For `O=C(CCCn1c(=S)[nH]c2ccc(Br)cc2c1=O)NCc1ccccn1`, which “activation” value is on record?
Its value is inactive: 3.32%.

For `Cc1cc2c(cc1S(=O)(=O)N1CCOCC1)NC(=O)CO2`, which “activation” value is on record?
The value was inactive: -0.543%.

With `O=C(NCCO)c1nc2ccccc2s1` as the compound, how does the “activation” value read?
The value was inactive: 3.2%.

With `CCc1c(C)nc2ncnn2c1N1CCN(S(=O)(=O)c2ccc(OC)cc2)CC1` as the compound, how does the “activation” value read?
Its value is inactive: -5.43%.

For `Cc1ccc(C(=O)Oc2ccc(-c3nccc(-c4ccccn4)n3)cc2)cc1`, which Potency is on record?
Its Potency is inconclusive [activator, partial curve].

For `CN(C)c1nc2c(c(=O)[nH]c(=O)n2C)n1CCCc1ccccc1`, which “activation” value is on record?
The value was inactive: -0.0065%.

With `O=S(=O)(Cc1noc(-c2ccccc2Cl)n1)c1ccccn1` as the compound, how does the Potency read?
The Potency was active: 1.58 µM.

With `Cc1nc2cc(-c3ccccc3)nn2c(N)c1-c1ccccc1` as the compound, how does the Potency read?
The Potency was active: 1 µM.

With `COc1ccc2[nH]c(C(=O)NCCc3ccccc3)cc2c1` as the compound, how does the Potency read?
The Potency was inconclusive [activator, single point].

For `Cc1ccc(NC(=O)C(=O)C2C(=O)Nc3ccccc32)cc1` (stereo unspecified), which Potency is on record?
Its Potency is inconclusive [activator, single point].

With `Cc1cccc(C(=O)Nc2ccc(NC(=O)c3ccccc3)cc2)c1` as the compound, how does the “activation” value read?
Its value is inactive: -0.598%.

Which Potency does the source give for `COc1ccc2oc(C(=O)Nc3nc(C)cs3)c(C)c2c1` here?
Its Potency is active: 2.51 µM.

Which “activation” value does the source give for `Cc1cc(Br)c2c(c1)/C(=C/C(=O)c1cccs1)C(=O)N2` here?
Its value is inactive: -9.02%.

For `O=c1c2ccccc2nc2c3ccccc3cnn12`, which Potency is on record?
Its Potency is inconclusive [activator, single point].

Which Potency does the source give for `C#CCn1c(=NC(=O)c2ccc(Br)s2)sc2cccc(OC)c21` here?
Its Potency is inconclusive [activator, single point].

For `CC(C)(C)NC(=O)NC(=O)COc1ccccc1C#N`, which Potency is on record?
The Potency was active: 3.98 µM.

With `CC1S/C(=N/N=C/c2ccco2)N(Cc2ccccc2)C1=O` (stereo unspecified) as the compound, how does the Potency read?
Its Potency is inconclusive [activator, partial curve].

With `Cc1c(NC(=O)c2ccc3c(c2)C(=O)N(Cc2ccco2)C3=O)cccc1C(=O)O` as the compound, how does the “activation” value read?
Its value is inactive: 0.143%.

For `CC(C)c1ccc(NC(=S)NC2CCCCCC2)cc1`, which Potency is on record?
Its Potency is inconclusive [activator, single point].

With `COc1ccccc1NC(=O)Cn1nnc(-c2ccccc2NC(=O)c2cc3ccccc3oc2=O)n1` as the compound, how does the Potency read?
Its Potency is inconclusive [activator, partial curve].

With `Cc1ccc(/C=N/n2cc(-c3ccccc3)[nH]c2=S)s1` as the compound, how does the Potency read?
The Potency was inconclusive [activator, partial curve].

For `Cc1csc(NC(=O)c2ccccc2O)n1`, which Potency is on record?
The Potency was inconclusive [activator, partial curve].

For `CCCCc1c(C)[nH]c2nc3ccccc3n2c1=O`, which Potency is on record?
Its Potency is inconclusive [activator, single point].

For `CCOC(=O)C1CCN(C(=O)CNC(=O)c2nn(-c3ccc(OC)c(OC)c3)c(=O)c3ccccc23)CC1`, which “activation” value is on record?
The value was inactive: 13%.

Which Potency does the source give for `CC(OC(=O)CNC(=O)c1ccccc1F)C(=O)Nc1nc(-c2ccccc2)cs1` (stereo unspecified) here?
The Potency was inconclusive [activator, partial curve].

Which Potency does the source give for `CCOC(=O)N1CCC(NC(=O)c2ccc3c(c2)sc2nc(-c4ccccc4)cn23)CC1` here?
The Potency was inconclusive [activator, partial curve].

For `O=S(=O)(Cc1cc(-c2ccccc2Cl)no1)c1ccccc1`, which Potency is on record?
Its Potency is inconclusive [activator, single point].

For `CC(C)(C)C(=O)Cn1ncc(N2CCCC2)c(Br)c1=O`, which Potency is on record?
Its Potency is inconclusive [activator, partial curve].

For `COc1ccc(-c2cn(CC3CCCCC3)nn2)cc1`, which Potency is on record?
The Potency was active: 3.98 µM.

With `O=C(Nc1ccccn1)c1ccc2c(c1)OCO2` as the compound, how does the Potency read?
Its Potency is active: 3.16 µM.

With `NC(=O)C1CCN(C(=O)c2cc3c(s2)CCCC3)CC1` as the compound, how does the Potency read?
The Potency was active: 1.78 µM.

For `Cn1nnnc1SCC(=O)Nc1nc2ccccc2s1`, which Potency is on record?
The Potency was inconclusive [activator, single point].

With `CC(C)(C)N(Cc1ccccc1)C(=O)CN1C(=O)c2ccccc2C1=O` as the compound, how does the Potency read?
Its Potency is inconclusive [activator, partial curve].

With `COc1ccccc1N1C(=O)S/C(=C\c2ccc(C)s2)C1=O` as the compound, how does the Potency read?
Its Potency is inconclusive [activator, single point].
